These results are taken from PubChem BioAssay AID2202238 (Ras Initiative Chemistry Research Team, Frederick National …, 2025).

In this test the target is GTPase KRas (Homo sapiens) (UniProt P01116). The experiment in a line: Covalent labelling of cysteine mutants by fragments, read by mass spectrometry (AID 2202238). Details: protein at 5 µM with 500 µM competing thiol for 1.5 h. The settings on record: KRAS G12D cysteine mutants, disulfide tethering, MALDI-TOF labeling, stronger effect = higher value, fragment at 500 µM.
The mark [1] stands for this setting: measured here: G75C mutant labeling.
Where [2] appears, read: measured here: H94C mutant labeling.
[3] abbreviates: measured here: I36C mutant labeling.
[4] abbreviates: measured here: L120C mutant labeling.
[5] abbreviates: measured here: M67C mutant labeling.
[6] abbreviates: measured here: M72C mutant labeling.
The mark [7] stands for this setting: measured here: N86C mutant labeling.
The mark [8] stands for this setting: measured here: P121C mutant labeling.
[9] abbreviates: measured here: S122C mutant labeling.
Where [10] appears, read: measured here: S136C mutant labeling.
Where [11] appears, read: measured here: G60C mutant labeling.
Setting [12] is: measured here: N26C mutant labeling.

The structures appear in SMILES notation. The list shows a part of the results. Shown are side measurements of this screen, not its main read-out; they come without a call.

Chain of UniProt P01116 (P01116 whole entry, looked up, the tested form may be a part): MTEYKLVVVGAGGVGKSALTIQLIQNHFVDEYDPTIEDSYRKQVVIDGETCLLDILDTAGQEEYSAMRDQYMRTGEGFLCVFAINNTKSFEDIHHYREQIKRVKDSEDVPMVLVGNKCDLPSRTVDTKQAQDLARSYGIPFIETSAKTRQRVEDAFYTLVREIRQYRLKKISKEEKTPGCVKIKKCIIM

For `O=C(CCS)Nc1ccn(Cc2cn3ccccc3n2)n1`, the percent labeling reads like this: under setting [1], 16.6%; under setting [2], 37.7%; under setting [3], 47.8%; under setting [4], 33.9%; under setting [5], 46.5%; under setting [6], 35.4%. The percent labeling is, setting by setting: under setting [7], 38.3%; under setting [8], 26.2%; under setting [9], 26%; under setting [10], 44.7%.

As to `O=C(NCCS)c1cccc(C(=O)Nc2ccccc2)c1`, the percent labeling reads like this: under setting [11], 14%; under setting [1], 8.2%; under setting [2], 12.5%; under setting [3], 10.6%; under setting [4], 19.4%; under setting [5], 11%. The percent labeling is, setting by setting: under setting [6], 16.8%; under setting [12], 31%; under setting [7], 7.5%; under setting [8], 12.7%; under setting [9], 7.3%; under setting [10], 12.8%.

For the compound `Cn1nc(NC(=O)CCS)cc1COCCC(F)(F)F`, the percent labeling is, setting by setting: under setting [1], 11.4%; under setting [2], 32.2%; under setting [3], 33.7%; under setting [4], 33.1%; under setting [5], 28.2%; under setting [6], 27.1%. For the same compound, the percent labeling runs as follows: under setting [7], 23%; under setting [8], 25.2%; under setting [9], 30.3%; under setting [10], 42.1%.

Take `O=C(CCS)NC1CCN(C2CCC2)CC1`: the percent labeling came out at 11.4% under setting [1]; 22.1% under setting [2]; 44.4% under setting [3]; 19.2% under setting [4]; 36.4% under setting [5]; 12.9% under setting [6]. This compound also showed a percent labeling under setting [7] of 19.9%, a percent labeling under setting [8] of 27.6%, a percent labeling under setting [9] of 21.2% and a percent labeling under setting [10] of 41.5%.

As to `O=C(NCCS)c1cc2n(n1)CCCC2`, the percent labeling runs as follows: under setting [11], 37.2%; under setting [1], 23.5%; under setting [2], 38.7%; under setting [3], 29.1%; under setting [4], 43.4%; under setting [5], 37.5%. Moreover, the percent labeling is, setting by setting: under setting [6], 46.3%; under setting [12], 38.7%; under setting [7], 29.3%; under setting [8], 29.7%; under setting [9], 33.2%; under setting [10], 49.7%.

`O=C(NCCS)c1cnn(C2CCOCC2)c1` showed a percent labeling under setting [11] of 28.6%; a percent labeling under setting [1] of 13.8%; a percent labeling under setting [2] of 28.9%; a percent labeling under setting [3] of 24.9%; a percent labeling under setting [4] of 36.8%; a percent labeling under setting [5] of 32.6%. Besides, the percent labeling reads like this: under setting [6], 24.1%; under setting [12], 41.8%; under setting [7], 22.3%; under setting [8], 28.1%; under setting [9], 29.7%; under setting [10], 46.8%.

`CN(C)c1ncc2c(n1)CCN(C(=O)CCS)C2` yielded a percent labeling under setting [1] of 11.4%; a percent labeling under setting [2] of 17.2%; a percent labeling under setting [3] of 18.4%; a percent labeling under setting [4] of 12.3%; a percent labeling under setting [5] of 25.9%; a percent labeling under setting [6] of 17.4%. For the same compound, the percent labeling is, setting by setting: under setting [7], 8.6%; under setting [8], 17.7%; under setting [9], 25%; under setting [10], 46.2%.

For `Cc1nn(C)cc1CN(CCO)C(=O)CCS`, the percent labeling by setting is: under setting [1], 8.1%; under setting [2], 24.4%; under setting [3], 35.5%; under setting [4], 25.8%; under setting [5], 33.5%; under setting [6], 11.7%. The percent labeling runs as follows: under setting [7], 17.8%; under setting [8], 27.5%; under setting [9], 25.7%; under setting [10], 47.5%.

With `CC(C)(C(=O)NCCS)c1cccc(Cl)c1F`, the percent labeling came to 59.4% under setting [11]; 27.4% under setting [1]; 37% under setting [2]; 24.3% under setting [3]; 38.5% under setting [4]; 33.5% under setting [5]. Also, the percent labeling turned out to be 62.8% under setting [6]; 36.6% under setting [12]; 24.6% under setting [7]; 26.2% under setting [8]; 27% under setting [9]; 41.2% under setting [10].

`Cc1ccc(C2CCCN2C(=O)CCS)s1` (centres undefined): the percent labeling under setting [1] was 20%; the percent labeling under setting [2] was determined as 40.8%; the percent labeling under setting [3] was found to be 30.7%; the percent labeling under setting [4] was found to be 27.3%; the percent labeling under setting [5] came to 32.7%; the percent labeling under setting [6] amounted to 37.4%. Moreover, the percent labeling runs as follows: under setting [7], 23.9%; under setting [8], 32.6%; under setting [9], 28.7%; under setting [10], 55.2%.

For the compound `CCn1cc(NC(=O)CCS)c(C(=O)NCCc2ccccc2)n1`, the percent labeling was 18.5% under setting [1]; 15% under setting [2]; 14.6% under setting [3]; 10.4% under setting [4]; 20.4% under setting [5]; 30.4% under setting [6]. Besides, the percent labeling under setting [7] was found to be 20.8%, the percent labeling under setting [8] was found to be 13.4%, the percent labeling under setting [9] was determined as 10% and the percent labeling under setting [10] amounted to 22.7%.

Take `Cc1cc(C(=O)NCCS)sc1-c1ccccc1`: the percent labeling worked out at 27.2% under setting [11]; 12.3% under setting [1]; 15.7% under setting [2]; 8.2% under setting [3]; 16.5% under setting [4]; 9% under setting [5]. The percent labeling reads like this: under setting [6], 54.9%; under setting [12], 24.4%; under setting [7], 12.4%; under setting [8], 13.5%; under setting [9], 8.9%; under setting [10], 18%.

Consider `O=C(CCS)NCc1nc(-c2cccs2)n[nH]1`, for which the percent labeling reads like this: under setting [1], 58.3%; under setting [2], 28.3%; under setting [3], 43.6%; under setting [4], 44.3%; under setting [5], 47.5%; under setting [6], 26.8%. In addition, the percent labeling turned out to be 17.4% under setting [7], 33% under setting [8], 33.7% under setting [9] and 56.7% under setting [10].

In the case of `CN(Cc1ccccc1)C(=O)NCCC(=O)NCCS`, the percent labeling by setting is: under setting [11], 35.6%; under setting [1], 13.2%; under setting [2], 40.4%; under setting [3], 30.9%; under setting [4], 40.4%; under setting [5], 45.7%. Also, the percent labeling worked out at 29.9% under setting [6]; 31.9% under setting [12]; 25.3% under setting [7]; 36.1% under setting [8]; 32.8% under setting [9]; 49.6% under setting [10].

`CC(C(=O)NCCS)C1OCCc2sccc21` (centres undefined): the percent labeling is, setting by setting: under setting [11], 58.1%; under setting [1], 22.5%; under setting [2], 37.9%; under setting [3], 27.5%; under setting [4], 39.7%; under setting [5], 36.5%. The percent labeling by setting is: under setting [6], 34.2%; under setting [12], 38.9%; under setting [7], 27.6%; under setting [8], 35.7%; under setting [9], 30.8%; under setting [10], 49.1%.

On to `O=C(NCCS)c1cc(N2CCCC2=O)ccc1F`, for which the percent labeling reads like this: under setting [11], 39.7%; under setting [1], 30%; under setting [2], 42.4%; under setting [3], 31.9%; under setting [4], 49.7%; under setting [5], 39.6%. Also, the percent labeling reads like this: under setting [6], 53.1%; under setting [12], 47.5%; under setting [7], 38.6%; under setting [8], 33.3%; under setting [9], 37.2%; under setting [10], 64.4%.

On to `O=C(CCS)NC1CCN(C(=O)CCc2ccccc2)CC1`, for which the percent labeling is, setting by setting: under setting [1], 14.7%; under setting [2], 36.9%; under setting [3], 57.3%; under setting [4], 27.8%; under setting [5], 52.5%; under setting [6], 26.9%. This compound also came in with a percent labeling under setting [7] of 25.8%, a percent labeling under setting [8] of 36%, a percent labeling under setting [9] of 35.3% and a percent labeling under setting [10] of 59.4%.

On to `O=C(CCS)Nc1cnn(-c2cnc3ccccc3n2)c1`, for which the percent labeling by setting is: under setting [1], 0%; under setting [2], 8.4%; under setting [3], 19.7%; under setting [4], 9.6%; under setting [5], 7.8%; under setting [6], 41.4%. Moreover, the percent labeling came to 7.4% under setting [7], 7% under setting [8], 7.7% under setting [9] and 17.4% under setting [10].

With `O=C(CCS)N1CCOCC1c1noc(-c2ccccc2)n1` (centres undefined), the percent labeling stood at 16% under setting [1]; 27.7% under setting [2]; 29.1% under setting [3]; 34.1% under setting [4]; 45.6% under setting [5]; 36.4% under setting [6]. For the same compound, the percent labeling was found to be 17.8% under setting [7], 42.8% under setting [8], 21.1% under setting [9] and 44.9% under setting [10].

`O=C(NCCS)C1CCCCN1C(=O)C1CCCC1` (centres undefined): the percent labeling is, setting by setting: under setting [11], 36.7%; under setting [1], 14.6%; under setting [2], 41.5%; under setting [3], 29.6%; under setting [4], 47.4%; under setting [5], 34.9%. Further, the percent labeling is, setting by setting: under setting [6], 30.4%; under setting [12], 33.6%; under setting [7], 27.7%; under setting [8], 34.5%; under setting [9], 33.2%; under setting [10], 51.3%.

Consider `COc1ccc2[nH]c(C)c(C(=O)NCCS)c2c1`, for which the percent labeling is, setting by setting: under setting [11], 32.6%; under setting [1], 18.4%; under setting [2], 42.6%; under setting [3], 16.7%; under setting [4], 43.5%; under setting [5], 27.2%. In addition, the percent labeling stood at 47.5% under setting [6]; 43.5% under setting [12]; 19% under setting [7]; 19.1% under setting [8]; 19.6% under setting [9]; 47.3% under setting [10].

As for `Cc1cc2c(cc(C(=O)NCCS)n2CC(F)(F)F)s1`, the percent labeling is 17.7% under setting [11]; 9.5% under setting [1]; 10.3% under setting [2]; 8.3% under setting [3]; 6.9% under setting [4]; 7.3% under setting [5]. Besides, the percent labeling is 44.2% under setting [6]; 25.6% under setting [12]; 8.7% under setting [7]; 7.8% under setting [8]; 4.1% under setting [9]; 11% under setting [10].

`O=C(NCCS)C1CCCN1C(=O)Cc1ccc2ccccc2c1` (centres undefined): the percent labeling under setting [11] worked out at 51.3%; the percent labeling under setting [1] is 22.1%; the percent labeling under setting [2] came out at 32%; the percent labeling under setting [3] came to 21.3%; the percent labeling under setting [4] amounted to 36%; the percent labeling under setting [5] was determined as 49.4%. The percent labeling stood at 35.3% under setting [6]; 36.7% under setting [12]; 18.5% under setting [7]; 26.5% under setting [8]; 16.7% under setting [9]; 33.3% under setting [10].

In the case of `CC(C)(COc1ncccc1Br)NC(=O)CCS`, the percent labeling runs as follows: under setting [1], 17.7%; under setting [2], 32%; under setting [3], 28.9%; under setting [4], 18.5%; under setting [5], 38.4%; under setting [6], 38.7%. The percent labeling turned out to be 25.3% under setting [7], 26% under setting [8], 24% under setting [9] and 52.7% under setting [10].
